# Source: PubChem BioAssay AID1345083 (National Center for Advancing Translational Sciences (NCATS), 2018)
# Where “and” joins values, the source holds several entries; their conditions need not be identical. Identical values can stand only once. The campaign covered roughly 94,000 compounds. About 6,200 (6.6%) were called active. The inconclusive results got no clear call from the source; some entries with a clear call stand among them for comparison. The call rests on the fitted dose curve; in most records, active means well fitted inhibition curve with a large enough effect; inconclusive means small, poorly fitted or top-dose-only effect; inactive means flat fitted curve, though single readings scatter. Potencies beside an inconclusive call are fits to weak or partial responses and may not hold up.
# Assay: Cytotoxic Profiling in HEK 293 Cell Line of Diverse Libraries Using Quantitative High-Throughput Screening; further: nearly all actives have a fitted effect of over 60% in size
# Conditions: HEK 293 viability, ATP luminescence (CellTiter-Glo), 48-72 h; series mostly up to 115 µM
# Method in brief: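 Luminescence from cellular ATP, measured with CellTiter-Glo, indicates HEK 293 viability. Cells plated at 250 cells/well are treated with compound for 48 or 72 hr at 37 degree Celsius before reagent addition.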
# Potency means the concentration at half of the fitted maximal effect; tags describe the fitted curve by direction and shape.
row,SMILES,Potency
1,O=C1NC2(CCN(Cc3cccc4ccccc34)C2)Oc2ccccc21 (stereo not given),"inconclusive: 56.2 µM [inhibitor, partial curve, poor fit]"
2,O=C(NCCCc1ccccc1)[C@@H]1CCCN1c1nccc(Nc2ccccc2Cl)n1,"inconclusive: 50.1 µM [inhibitor, partial curve, poor fit]"
3,COc1cccc(-c2ccc(C(=O)N3CCC(NC(=O)Cc4cccc(Cl)c4)CC3)cc2)c1,active: 25.1 µM
4,COc1ccc(Nc2ccnc(N3CCN(C(=O)N(C)C)CC3)n2)cc1,"inconclusive: 56.2 µM [inhibitor, partial curve, poor fit]"
5,Cc1oc(-c2ccccc2)nc1Cn1ccn2nc3c(c2c1=O)CCCC3,inactive
6,Cc1ccsc1C(=O)N1CCC(Oc2cccnc2)C1 (stereo not given),inactive
7,Cc1noc(C)c1-c1cc2c(cc(C)n2C)c(-c2cccc(O)c2)n1,"inconclusive: 79.4 µM [inhibitor, partial curve, poor fit]"
8,O=C(CCc1ccsc1)N1CCc2ncnc(NC3CCC3)c2CC1,"inconclusive: 25.1 µM [inhibitor, full curve, poor fit]"
9,COCCNc1cc2c(cn1)CN(Cc1ccccc1)CCN2,"inconclusive: 22.4 µM [inhibitor, full curve]"
10,CS(=O)(=O)NCCc1ccc(CC2CCN(C(=O)COc3ccc(F)cc3)CC2)cc1,"inconclusive: 10 µM [inhibitor, full curve, poor fit]"
11,COCC(=O)N1CCC(C(=O)NCC2(c3ccccc3)CCCCC2)CC1,"inconclusive: 50.1 µM [inhibitor, partial curve, poor fit]"
12,CC(C)NC(=O)N1CCN(C(=O)c2ccc(N(C)C)cc2)C[C@H]1C(=O)N[C@@H](CC1CCCCC1)C(N)=O,inactive
13,COc1ccc(-c2noc(-c3cccn3CC(=O)Nc3cc(Cl)ccc3OC)n2)cc1F,"inconclusive: 100 µM [inhibitor, single point]"
14,COc1cccc(CCC2CCCN(C3CCN(Cc4cccnc4)CC3)C2)c1 (stereo not given),"inconclusive: 25.1 µM [inhibitor, full curve]"
15,O=C(Cc1ccccc1)N1CCCC(c2nn(-c3ccc(Cl)cc3)c(=O)[nH]2)C1 (stereo not given),"inconclusive: 89.1 µM [inhibitor, single point]"
16,Cc1cc(C)c2c(C(=O)N3CCN(C)C4(CCN(C)CC4)C3)cc(C)nc2c1,inactive
17,O=C(Nc1ccc(F)cc1)N[C@H]1[C@H](O)[C@@H](Oc2ccccc2)[C@@H]2OC[C@H]1O2,"inconclusive: 126 µM [inhibitor, single point]"
18,Cc1ccc(-c2cn3c(n2)CO[C@@H](CNC(=O)NCc2ccccc2)C3)cc1,"inconclusive: 112 µM [inhibitor, single point]"
19,O=[S+]([O-])(c1cccc(C(F)(F)F)c1)N1CCC2(CCN(Cc3cccs3)c3ccccc3O2)CC1,"inactive and inconclusive: 31.6 µM [inhibitor, partial curve, poor fit]"
20,O=C([C@@H]1C[C@@H](O)[C@H](O)[C@@H]2NC(=S)N(c3ccc(OC(F)(F)F)cc3)[C@@H]21)N1CCCCC1,"inconclusive: 79.4 µM [inhibitor, partial curve, poor fit]"
21,O=C(c1ccsc1)N1CCC2(CC1)CC(OCC1CC1)CCO2 (stereo not given),inactive
22,COc1ccc(CN2CC3(CCN(S(=O)(=O)c4c(C)noc4C)CC3)C2=O)cc1,"inconclusive: 89.1 µM [inhibitor, single point]"

row,SMILES,Potency
1,CCN(CC)C(=O)C[C@@H]1CCNC[C@@H]1Cc1cc(-c2ccccc2)on1,"inconclusive: 70.8 µM [inhibitor, partial curve]"
2,COc1ccc(/C=C/CN2CCC(CCC(=O)Nc3ccccc3Cl)CC2)cc1,"inconclusive: 50.1 µM [inhibitor, partial curve, poor fit]"
3,COCC1(C(=O)N2CCN(C)C3(CCNC(=O)CC3)C2)CC1 (stereo not given),inactive
4,COc1ccc(Nc2ccnc(N3CCCC(C(=O)NCc4ccc(C(F)(F)F)cc4)C3)n2)cc1 (stereo not given),active: 20 µM
5,COc1ccc(-c2[nH]nc3ncc(-c4ccccc4F)nc23)c(C)c1,active: 63.1 µM
6,COc1cccc(CCN(Cc2cccc(C)c2)C(=O)[C@H]2CCC[C@H](O)C2)c1,"inconclusive: 50.1 µM [inhibitor, partial curve, poor fit]"
7,CC(C)NC(=O)c1cn2cc(-c3ccccc3)sc2n1,active: 70.8 µM
8,Cn1ncc2c(C(=O)N3CCOCC3)cc(-c3ccc(Cl)nc3)nc21,inactive
9,Cc1cc(C)cc(C(=O)N2CCN(c3cc(-c4ccccc4)[nH]n3)CC2)c1,"inconclusive: 50.1 µM [inhibitor, partial curve, poor fit]"
10,Cc1noc([C@@H]2CN(S(=O)(=O)c3ccc4c(c3)OCCO4)C[C@H]2C(N)=O)n1,"inconclusive: 89.1 µM [inhibitor, single point]"
11,O=C(Nc1nn(-c2cccc(F)c2)c2cccc(N3CCOCC3)c12)C1CCC1,active: 44.7 µM
12,CCc1nc2c(c(-c3ccc(O)cc3)n1)CN(C(=O)c1ccccc1F)CC2,inactive
13,O=C(NCc1ccc2c(c1)OCO2)C1CCN(Cc2ccccc2-c2ccccc2F)CC1,"inconclusive: 22.4 µM [inhibitor, full curve, poor fit]"
14,CC(C)CNC(=O)N1CCC(CC2CC2)(NS(C)(=O)=O)CC1,inactive
15,COc1ccccc1CC(=O)N1CCC[C@H]1c1nc(-c2ccc(F)cc2)no1,"inconclusive: 79.4 µM [inhibitor, single point]"
16,CCCOc1ccc(CN2C[C@@H]3C(=O)N(CCOC)C(=O)[C@@H]3C2)cc1,"inconclusive: 89.1 µM [inhibitor, single point]"
17,CC(C)c1cccc(NC(=O)CCn2ccn3nc4c(c3c2=O)CCCC4)c1,"inconclusive: 50.1 µM [inhibitor, partial curve, poor fit]"
18,CN(C/C=C/c1ccccc1)c1cc(C2CC(O)C2)nc(N)n1 (stereo not given),"inconclusive: 39.8 µM [inhibitor, partial curve, poor fit]"
19,COCCc1nc(-c2cnc(C3CC3)nc2)n(-c2ccc(F)cc2F)n1,"inconclusive: 44.7 µM [inhibitor, full curve, poor fit]"
20,c1cc2c(cc1CNC1(Cc3cc(CN4CCCCC4)on3)COC1)OCO2,inactive
21,O=C1N(c2ccccc2)C[C@H]2CN(Cc3ccccc3)CCN12,inactive
22,CCN1C(=O)CCN(Cc2cnn(CC)c2C)CC12CCOCC2,inactive

row,SMILES,Potency
1,CN(Cc1ccc(F)cc1)C(=O)c1ccccc1F,"inconclusive: 112 µM [inhibitor, single point]"
2,COCCO[C@H]1C(=O)N(C2CCN(C(=O)c3cccn3C)CC2)[C@H]1c1ccncc1,inactive
3,OC1(c2csc(CN3CCOCC3)n2)CCN(Cc2ccc(C(F)(F)F)cc2)CC1,"inconclusive: 35.5 µM [inhibitor, partial curve]"
4,COc1ccccc1C(=O)N1CCC2(CC1)NC(=O)N(c1cccc(F)c1)N2,"inconclusive: 39.8 µM [inhibitor, full curve, poor fit]"
5,CC1=C[C@@H](CNCc2ccc(Cl)cc2)[C@H](C(C)C)C[C@H]1Cc1nnc(-c2cncn2C)o1,active: 79.4 µM
6,Cc1nc2c(c(-c3ccc(O)cc3)n1)CN(Cc1ccccc1)CCC2,"inconclusive: 79.4 µM [inhibitor, partial curve]"
7,O=[S+]([O-])(NC1CCN(Cc2cccc(-c3ccc(F)c(F)c3)c2)CC1)c1cccs1,active: 35.5 µM
8,CN(CC1CC1)C1CCOc2ccccc21 (stereo not given),inactive
9,CC(=O)N1CCN(C(=O)c2nc3cccnc3n(Cc3ccccc3)c2=O)CC1,inactive
10,Cc1nn(-c2ccccc2)c2c1C(C1CC1)N(CC1CN(C(=O)Nc3ccc(Cl)cc3)C1)C2=O (stereo not given),"inconclusive: 56.2 µM [inhibitor, partial curve, poor fit]"
11,Cc1cccc(NC(=O)N2CCc3nnc(C4CC4)n3CC2)c1,inactive
12,O=C(NCc1ccc(F)c(F)c1)c1cn2cc(-c3ccccc3)sc2n1,"inconclusive: 56.2 µM [inhibitor, partial curve, poor fit]"
13,CCCC(=O)N1Cc2ccccc2CC2(CCCN(CCC)C2)C1 (stereo not given),"inconclusive: 112 µM [inhibitor, single point]"
14,CNC(=O)CCn1ncc2cc(OCc3ccccc3-c3cc(F)ccc3C)ccc21,active: 63.1 µM
15,Cc1nc(-c2ccccc2OC2CN(S(=O)(=O)Cc3ccccc3)C2)no1,"inconclusive: 79.4 µM [inhibitor, single point]"
16,O=C(NC1CCCCC1)N[C@H]1CCN2C(=O)c3cc(-c4cccs4)ccc3NC(=O)[C@H]12,"inconclusive: 89.1 µM [inhibitor, single point]"
17,O=C(NCc1cc(F)ccc1F)C1CCc2sc(C(=O)N3CCOCC3)cc2C1 (stereo not given),"inconclusive: 79.4 µM [inhibitor, partial curve]"
18,Cc1cn2nc(-c3nc(C4CCCN(C(=O)c5ccccc5F)C4)no3)cc2c(=O)[nH]1 (stereo not given),"inconclusive: 56.2 µM [inhibitor, partial curve, poor fit]"
19,Cn1cccc1CN1CC[C@H]2C(=O)NCCCCCCN(Cc3ccncc3)[C@@H]2C1,"inconclusive: 89.1 µM [inhibitor, single point]"
20,COc1ccc(F)cc1-c1ccc(CN2CCC(NC(=O)c3ccc(C)cc3)C2)cc1 (stereo not given),active: 28.2 µM
21,CC1(C)[C@H]2CC[C@@H](CNC(=O)c3ccccc3Cl)[C@@H]1C2,"inconclusive: 112 µM [inhibitor, partial curve, poor fit]"
